Laboratory results: PubChem BioAssay AID485294 (National Center for Advancing Translational Sciences (NCATS), 2010)
Among all 370,000 compounds or so, about 150 (0.041%) were called active. The shares of active, inactive and inconclusive entries below differ from those in the screen. Calls follow the shape of the dose curve; as a rule, active = well fitted inhibition curve with a large enough effect; inconclusive = small, poorly fitted or top-dose-only effect; inactive = flat fitted curve, though single readings scatter. Potencies of inconclusive entries are left out as doubtful fits. Square brackets hold non-standard residues; d marks the D form. Peptide text beside a SMILES is read from it. * marks the point of attachment. Phe(4-Me) = Cc1ccc(C[CH](N)C(=O)O)cc1; Bz = O=C(c1ccccc1)*

biological target: Beta-lactamase (Escherichia coli (strain K12)) (UniProt P00811); assay: qHTS Inhibitors of AmpC Beta-Lactamase (assay with detergent); conditions: AmpC hydrolysis of nitrocefin, absorbance 480 nm, 0.01% Triton; series mostly up to 114 µM; also: nearly all actives have a fitted effect of over 25% in size
Outline: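 AmpC (5.3 nM in the dispensed reagent) in 20 mM phosphate pH 7.0 with 0.01% (detergent screen) or 0.0001% Triton X-100 was preincubated with compounds for 15 min at room temperature. Nitrocefin was then added from an 800 uM solution, and hydrolysis was followed at 480 nm.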
Potency is read from the fitted curve at half-maximal effect; tags tell the direction and shape of the fitted curve.

Chain of UniProt P00811 (P00811 whole entry, looked up): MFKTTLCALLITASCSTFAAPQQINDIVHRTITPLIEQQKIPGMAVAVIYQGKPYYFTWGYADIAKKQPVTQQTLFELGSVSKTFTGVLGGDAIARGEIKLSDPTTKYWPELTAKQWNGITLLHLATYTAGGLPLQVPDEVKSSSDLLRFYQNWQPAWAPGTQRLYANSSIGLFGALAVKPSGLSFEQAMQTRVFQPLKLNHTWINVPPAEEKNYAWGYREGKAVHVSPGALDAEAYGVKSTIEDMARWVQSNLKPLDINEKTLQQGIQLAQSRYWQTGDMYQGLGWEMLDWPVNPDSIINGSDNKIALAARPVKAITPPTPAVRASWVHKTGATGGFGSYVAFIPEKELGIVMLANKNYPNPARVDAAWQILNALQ

**Q.** For CC(C)N1C(=O)CCC1C(=O)N1CCC(Cc2ccccc2)CC1 (configuration not stated), which Potency is on record?
**A.** inconclusive [inhibitor, full curve, poor fit]

**Q.** For COC(=O)c1sc(NC(=O)c2ccc([N+](=O)[O-])o2)c(C#N)c1C, which Potency is on record?
**A.** inactive

**Q.** How did the Potency turn out when COC(=O)CCc1c(COC(C)=O)[nH]c(C(=O)OCc2ccccc2)c1C was run?
**A.** inactive

**Q.** With Cc1ccc(N(Cc2cc3ccc(C)cc3[nH]c2=O)C(=O)c2cccs2)cc1 as the compound, how does the Potency read?
**A.** inactive

**Q.** For CCCCn1c(N)c(N(CCOC)C(=O)c2ccc(-c3cccc(C(F)(F)F)c3)o2)c(=O)[nH]c1=O, which Potency is on record?
**A.** inconclusive [inhibitor, partial curve, poor fit]

**Q.** CC(C)C(=O)Nc1ccc(Oc2ccc3c(c2)C(=O)NC3=O)cc1 was tested. Which Potency did it give?
**A.** inconclusive [inhibitor, full curve, poor fit]

**Q.** Which Potency does the source give for CCOC(=O)N1CCN(C(=O)CSc2nnc(COc3ccc(Cl)cc3)o2)CC1 here?
**A.** inconclusive [inhibitor, full curve]

**Q.** Which Potency does the source give for CCOC(=O)N1CCN(C(=O)CSCC(=O)Nc2nc(-c3ccc(C)cc3)cs2)CC1 here?
**A.** inconclusive [inhibitor, full curve, poor fit]

**Q.** COc1ccc(C(=O)O)cc1S(=O)(=O)Nc1cccc(C(F)(F)F)c1 was tested. Which Potency did it give?
**A.** inconclusive [inhibitor, partial curve, poor fit]

**Q.** With Cc1ccc(CNC(=O)C2(C(F)(F)F)C/C(=C\Cc3ccccc3)CCCO2)o1 (configuration not stated) as the compound, how does the Potency read?
**A.** inconclusive [inhibitor, full curve]

**Q.** How did the Potency turn out when O=C(CCC(=O)N1CCN(S(=O)(=O)c2ccc(Cl)cc2)CC1)Nc1cccc(Br)c1 was run?
**A.** inconclusive [inhibitor, partial curve]

**Q.** Which Potency does the source give for O=C(Nc1nccs1)c1ccccc1Br here?
**A.** inactive

**Q.** With CCn1c2ccccc2c2cc(C3C(C#N)=C(N)OC4=C3C(=O)CC(C)(C)C4)ccc21 (configuration not stated) as the compound, how does the Potency read?
**A.** inconclusive [inhibitor, full curve, poor fit]

**Q.** With COc1cc(/C=N/N2CCN(c3ccccc3OC)CC2)ccc1OC(C)=O as the compound, how does the Potency read?
**A.** inconclusive [inhibitor, partial curve]

**Q.** With COc1cccc(-c2cc(C(=O)Nc3c(C)nn(Cc4ccccc4)c3C)no2)c1 as the compound, how does the Potency read?
**A.** inactive

**Q.** Cc1nc(-c2cccc(N)c2)cs1 was tested. Which Potency did it give?
**A.** inconclusive [inhibitor, partial curve]

**Q.** Cc1nc(-c2ccc(S(=O)(=O)Nc3ccc(Br)cc3F)cc2)co1 was tested. Which Potency did it give?
**A.** inconclusive [inhibitor, partial curve, poor fit]

**Q.** How did the Potency turn out when O=S(=O)(Nc1nc2ccccc2nc1NCCN1CCOCC1)c1cccc(Cl)c1 was run?
**A.** inconclusive [inhibitor, full curve, poor fit]

**Q.** Which Potency does the source give for O=C(COc1ccc(Cl)cc1)NCc1nnc(SCC(=O)N2CCCc3ccccc32)o1 here?
**A.** inactive

**Q.** How did the Potency turn out when O=C(c1cnc2n(c1=O)CCS2)N(c1ccccc1)C1CCCCC1 was run?
**A.** inconclusive [inhibitor, full curve]

**Q.** With CN(C)CCCO/N=C(\c1ccccc1)c1ccncc1 as the compound, how does the Potency read?
**A.** inconclusive [inhibitor, single point]

**Q.** With COc1ccccc1NS(=O)(=O)c1cccc(NC(=O)CCNC(=O)c2ccccc2OC)c1 as the compound, how does the Potency read?
**A.** inconclusive [inhibitor, full curve]

**Q.** O=C(c1cc(=O)[nH]c2ccccc12)N1CCN(S(=O)(=O)c2ccc3ccccc3c2)CC1 was tested. Which Potency did it give?
**A.** inconclusive [inhibitor, partial curve, poor fit]

**Q.** How did the Potency turn out when O=[N+]([O-])c1ccc(Sc2ccccc2)nc1 was run?
**A.** inactive

**Q.** COc1cc(NC(=O)c2cc3cc4ccc(OC)c(Cl)c4nc3s2)cc(OC)c1 was tested. Which Potency did it give?
**A.** inactive

**Q.** With ClC1=C(Cl)C(Cl)=C(Cl)C1=C/C=C/c1ccccc1 as the compound, how does the Potency read?
**A.** inactive

**Q.** How did the Potency turn out when C=CCn1c(C(C)NC(=O)C(C)(C)C)nc2ccccc21 (configuration not stated) was run?
**A.** inconclusive [inhibitor, partial curve, poor fit]

**Q.** Cc1ccc(OCCNC(=O)c2ccccc2OCc2c(C)noc2C)cc1 was tested. Which Potency did it give?
**A.** inactive

**Q.** For O=c1cc(-c2ccc(O)cc2)oc2ccccc12, which Potency is on record?
**A.** inconclusive [inhibitor, full curve, poor fit]

**Q.** For Cc1ccc2c(c1)CC1(CN2C)C(=O)OC(C)(C)OC1=O, which Potency is on record?
**A.** inactive

**Q.** With CCCSc1nsc(SCCC)c1C#N as the compound, how does the Potency read?
**A.** inconclusive [inhibitor, partial curve]

**Q.** COc1cccc(C(=O)Nc2ccc(C(=O)OCc3cc(=O)n4cc(C)sc4n3)cc2)c1 was tested. Which Potency did it give?
**A.** inactive

**Q.** How did the Potency turn out when O=C(CN1CCN(c2ccccc2F)CC1)Nc1cccnc1Cl was run?
**A.** inconclusive [inhibitor, full curve, poor fit]

**Q.** For CC1Sc2ccc(S(=O)(=O)CCC(=O)N3CCN(c4ccccc4)CC3)cc2NC1=O (configuration not stated), which Potency is on record?
**A.** inconclusive [inhibitor, single point]

**Q.** Which Potency does the source give for CCOc1ncccc1C(=O)Nc1ccc2c(c1)OCCCO2 here?
**A.** inconclusive [inhibitor, full curve, poor fit]

**Q.** Which Potency does the source give for O=[N+]([O-])c1cc(-c2nc(-c3ccncc3)no2)ccc1Cl here?
**A.** inconclusive [inhibitor, partial curve, poor fit]

**Q.** How did the Potency turn out when CC1CN(Cc2c(O)ccc3c2oc(=O)c2ccccc23)CC(C)O1 (configuration not stated) was run?
**A.** inactive

**Q.** With CCn1c(NCc2cc(OC)ccc2OC)nc2ccccc21 as the compound, how does the Potency read?
**A.** inconclusive [inhibitor, full curve, poor fit]

**Q.** With O=C(CSCc1ccccc1)Nc1ccc(S(=O)(=O)Nc2ncccn2)cc1 as the compound, how does the Potency read?
**A.** inconclusive [inhibitor, full curve, poor fit]

**Q.** With CCOc1ccc(Cc2c(Cl)nc(SC)nc2N(C)C)cc1 as the compound, how does the Potency read?
**A.** inconclusive [inhibitor, partial curve, poor fit]

**Q.** With CCOC(=O)C(CCOc1cccc(CC)c1)C(=O)OCC as the compound, how does the Potency read?
**A.** inconclusive [inhibitor, full curve, poor fit]

**Q.** Which Potency does the source give for CC1=C/C(=N\OS(=O)(=O)c2ccccc2)C=CC1=O here?
**A.** inconclusive [inhibitor, full curve, poor fit]

**Q.** Which Potency does the source give for CCN(CC(=O)Nc1c(F)cccc1F)C(=O)c1ccc2c(c1)OCCO2 here?
**A.** inconclusive [inhibitor, full curve]

**Q.** For O=C(Cc1cccs1)Nc1ccc(N2CCOCC2)cc1, which Potency is on record?
**A.** inconclusive [inhibitor, partial curve, poor fit]

**Q.** For CCCN(CC(=O)Nc1ccccc1OC)C(=O)CCC(=O)c1ccc(OCC)cc1, which Potency is on record?
**A.** inconclusive [inhibitor, partial curve]

**Q.** CC(OC(=O)CCN1C(=O)C2CC=CCC2C1=O)C(=O)Nc1cccc(C#N)c1 (configuration not stated) was tested. Which Potency did it give?
**A.** inconclusive [inhibitor, full curve, poor fit]

**Q.** Which Potency does the source give for COC(=O)c1sc(NC(=O)c2csc3c2CCCC3)nc1C here?
**A.** inconclusive [inhibitor, full curve, poor fit]

**Q.** Which Potency does the source give for CC(C)N(Cc1nc(-c2ccccc2)no1)C(=O)CN(C)S(=O)(=O)c1ccccc1 here?
**A.** inconclusive [inhibitor, single point]

**Q.** Which Potency does the source give for COc1ccccc1NS(=O)(=O)c1cc(NC(=O)Nc2ccc(Cl)cc2Cl)ccc1N1CCCCC1 here?
**A.** inactive

**Q.** For Cc1ccc(CC(NC(=O)c2ccccc2)C(=O)NC(Cc2ccccc2)C(=O)O)cc1 (configuration not stated) (Bz-[Phe(4-Me)]-Phe-OH; configuration not given here), which Potency is on record?
**A.** inconclusive [inhibitor, partial curve, poor fit]

**Q.** With O=C(CCCO)N/N=C/c1cc(Br)ccc1O as the compound, how does the Potency read?
**A.** inconclusive [inhibitor, single point]

**Q.** With O=C(O)CCCn1cc(NC(=O)COc2ccccc2F)cn1 as the compound, how does the Potency read?
**A.** inactive

**Q.** How did the Potency turn out when CCS(=O)(=O)Nc1cccc(-c2nc3cccnc3s2)c1C was run?
**A.** inconclusive [inhibitor, full curve, poor fit]

**Q.** For COc1cc2c(cc1OC)C(c1ccc(OC)c(OC)c1OC)CC(=O)N2 (configuration not stated), which Potency is on record?
**A.** inconclusive [inhibitor, partial curve]

**Q.** Which Potency does the source give for O=C(CS(=O)(=O)c1ccc(F)cc1)Nc1nccs1 here?
**A.** inconclusive [inhibitor, full curve, poor fit]

**Q.** For CC(=O)Nc1ccc(NC2=CC(=O)CC(C)(C)C2)cc1, which Potency is on record?
**A.** inconclusive [inhibitor, full curve, poor fit]

**Q.** Cn1c(SCC(=O)NC(C)(C)C)nc(O)cc1=O was tested. Which Potency did it give?
**A.** inconclusive [inhibitor, full curve, poor fit]

**Q.** For Cn1c(CN2CCN(S(C)(=O)=O)CC2)nc2cc([N+](=O)[O-])ccc21, which Potency is on record?
**A.** inactive

**Q.** With Cc1cccc(-n2nc(C(=O)Nc3ccccc3)n3c(=O)cc(-c4ccccc4)nc23)c1 as the compound, how does the Potency read?
**A.** inconclusive [inhibitor, single point]

**Q.** For Cc1ccc(Cn2cccc2/C=C2/C(=N)N3C=CSC3=NC2=O)cc1, which Potency is on record?
**A.** inactive

**Q.** Cc1ccc(C(=O)CSc2nnc(-c3ccccc3)n2-c2ccccc2)o1 was tested. Which Potency did it give?
**A.** inactive

**Q.** Which Potency does the source give for CCOC(=O)c1c(C)n(-c2ccc(C)cc2)c2ccc(OCC(O)CN3CCN(C)CC3)cc12 (configuration not stated) here?
**A.** inactive

**Q.** For COc1ccc(-c2c(C)nn3c(-c4ccccc4)cc(-c4ccccc4)nc23)cc1, which Potency is on record?
**A.** inactive

**Q.** COC(=O)C(Cc1ccccc1)NC(=O)c1ccc(C)cc1 (configuration not stated) was tested. Which Potency did it give?
**A.** inconclusive [inhibitor, partial curve]

**Q.** How did the Potency turn out when O=[N+]([O-])c1cc(C(F)(F)F)ccc1Sc1nccn1Cc1ccccc1 was run?
**A.** inactive

**Q.** With Cc1cc(C)c2c(N)c(C(=O)NN3CC(=O)N(c4ccccc4F)CC3=O)sc2n1 as the compound, how does the Potency read?
**A.** inconclusive [inhibitor, full curve, poor fit]

**Q.** COc1cccc(NC(=O)CSc2nc3ccccc3c3nc4ccccc4n23)c1 was tested. Which Potency did it give?
**A.** inconclusive [inhibitor, full curve, poor fit]
